Measurements as given in the supplement of paper PMC11417369.
± gives the standard deviation of the averaged measurements. The list shows a part of the results.

test system: PfAP2-I AP2 domain 3 (GST-tagged); experiment: gcPBM binding intensity (ln(normalized median fluorescence intensity)); higher = stronger DNA binding
Outline: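 Using an Agilent 4 × 180k array, primer-extended double-stranded 36-bp intergenic genomic probes and negative controls were exposed for 1 h to GST-fused P. falciparum DNA-binding domains expressed in E. coli. Binding was carried out in 1× PBS with 1% milk, 0.2 mg/ml BSA, 0.5% salmon testes DNA and 0.03% Triton X-100, and protein was detected with Alexa488 anti-GST antibody and a 488 nm scan. Binding intensity is the highest Masliner-normalised natural-log median intensity across replicate spots of either probe orientation.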

Sequence	gcPBM binding intensity (ln)
ATATATCACAATAAAATTTATAGAATTTTAAATAAG [TGCATGCA_negctrl_site437]	7.4 ± 0.61
CAATAAAGAGGGAATTGTACTTTAAATATCCCTCTT [XGTACX_site1991]	7.61 ± 0.54
AAAATAAAATAAAATACACACATACATACATACAAA [CACACA_site5366]	7.86 ± 0.45
AATATATTTCGAGATACACACATATATAAAAAAAAA [CACACA_site3398]	7.86 ± 0.68
AAAAAAAAAAAAAAGACACACAATGTGAAATAATAA [CACACA_site804]	8 ± 0.62
AATAGAACAAATAAAACACACACATATATATATATA [CACACA_site8893]	9.32 ± 0.45
AAAAAAAAAAAAAAAGTGCACTGAAAATATATTGAA [GTGCAC_site9395]	11 ± 0.2
TTTTTAATTATTTATATAACGATAATCCTTACATAA [TGCATGCA_negctrl_site180]	7.59 ± 0.45
AACAAAAATGAAAAAACACACATAACATATATAAAT [CACACA_site740]	7.83 ± 0.87
ATAATATAAATAAAAACACACACAATCGTACATATA [CACACA_site9223]	7.92 ± 0.53
TATATAGAAAACAAGGCATGCAAATAACAAATTGTG [TGCATGCA_site473]	8.32 ± 0.91
ATATAATATATGTAAGTGCGCTTATAAATAAAACGA [GTGCAC_site9841]	8.98 ± 0.042
ATATATTGATATATGTGTACATAGCTTATTTCATTT [XGTACX_site1800]	7.72 ± 0.53
AATATTTTAAATATTGCATGCAATGAAAAATGTAAA [TGCATGCA_site139]	8.23 ± 0.64
TTTTAAAGAAAATATTTTATCATTATTTTTTGTACT [CACACA_negctrl_site1648]	7.41 ± 0.57
TTTTAAAATTTTTTTTTTTTTTTTTTATGAACAAGT [GTGCAC_negctrl_site124]	7.46 ± 0.13
TCTTATTTTTTTATATATACAAAGTTTTATATATAT [GTGCAC_negctrl_site314]	7.82 ± 0.57
ATAGTAAATATAAAAAGTACTGATTCTTAAATTGTT [XGTACX_site5972]	7.67 ± 0.6
GTTCAATCGGGTGTTACTTCAAACAAGGAACAACAA [TGCATGCA_negctrl_site471]	7.76 ± 0.46
ACTTGACACCAACACACACACATATATAAAAAAAAA [CACACA_site756]	8.32 ± 0.18
TATTTTATTGTTGTTATACACACCATATAAAATATT [CACACA_site1630]	7.79 ± 0.54
TATATATCTGTGAAAATACTTAAATTGTTATAAAAA [CACACA_negctrl_site1109]	7.62 ± 0.57

Sequence	gcPBM binding intensity (ln)
CGGCTATTTCTATATACATGCATTTAAAAAAAAAAT [TGCATGCA_site354]	7.93 ± 0.35
ACCTATTTCAAACACACACACACACTAACAAACATA [CACACA_site8233]	8.37 ± 0.39
AAAAAAAAAATGAGCACACATAAATAAAAACAAACA [CACACA_site1573]	8.12 ± 0.47
AACATATATTAGCTTACATGCAAAAAGTAAAAAAAT [TGCATGCA_site10]	8.05 ± 0.91
AAAACATCAAAAATGTGTACATATATATATATATAT [XGTACX_site8884]	9.4 ± 0.68
ATATATATATATGCATGTACATATTTATCTTTATAT [XGTACX_site232]	9.26 ± 0.15
AATTTAAAACGGAGATGTACATATATAAATATATAC [XGTACX_site3723]	7.65 ± 0.54
ATGTGAACATTCAATGCACACGATGTAATTATACAT [CACACA_site15]	9.44 ± 0.2
TTTTTAATATATATCACACATATATATTTTTAATTA [CACACA_site6099]	7.66 ± 0.48
ATAAAAATCTTTAGTAGTACATTATAAAAAACTATT [XGTACX_site5531]	7.71 ± 0.5
CTAATCGTGCACAACTGTACATTTGTCAAGGGCAAT [XGTACX_site8662]	10.77 ± 0.028
TTTAAAAATATATATTGTACATATATATATCTATGA [XGTACX_site3556]	7.42 ± 0.13
ATAAAAATTAAAAGGAGTACTTAAATATTAAGATGG [XGTACX_site4815]	8.04 ± 0.12
TTTATTTAAAAAATAAAAAAAAAAAAAAAAAAAAAA [CACACA_negctrl_site1670]	8.26 ± 0.88
TACTATTTAAAATTTGAACACACATTATTTATTTTA [CACACA_site9020]	7.45 ± 0.54
TATACAATATATATAACACACATATTTATATAAAAT [CACACA_site5061]	7.75 ± 0.29
AACATAAAAATTGAAGCACACACACTAATGAAATAC [CACACA_site8287]	8.68 ± 0.54
ACAAATCTATAAGAGTGTACGAACAGTAAAGGAATT [XGTACX_site2070]	8.28 ± 0.81
CAGTTGGAAGGAAAGTGTACATAAAAAAAAATATAA [XGTACX_site8784]	8.2 ± 0.64
AAAATACCATTTGAAACACACAAAAAAAAAAAAAAT [CACACA_site2981]	7.58 ± 0.5
ATATTATATATATACACACACACATGCATGCACATA [CACACA_site7917]	9.05 ± 0.56
TATTTTCTCGTTTGCATGCACCTTATTTTATGTGGT [GTGCAC_site9470]	9.53 ± 0.38

Sequence	gcPBM binding intensity (ln)
TAAAATTTGCGATGCACACAGAATAGCTAATATGAC [CACACA_site2995]	8.21 ± 0.69
TACTAAAACCCATACACACACATATTTATAGTACCA [CACACA_site7484]	7.72 ± 0.44
AAATTCTGCATCGAGGTGCGCCATAAAAATTGTGGT	9.195 ± 0.021
AGTTATTTTAAATGTAGTACACAAAAGAAATATTAA [XGTACX_site4092]	8.425 ± 0.007
CATAAATTAAAACACACACACACAAAAAAAAAAAAA [CACACA_site2262]	8.05 ± 0.55
ATATATTATGGGTGTGCACACAATATTTATATGTTC [CACACA_site2270]	9.59 ± 0.23
TTATAATAAATATATAAAAAAAAAAAAAAAAAAAAA [CACACA_negctrl_site1639]	8.16 ± 0.61
TTTTCTTATAAATGAAGTACAAAAAAAAAATATATA [XGTACX_site1352]	8 ± 0.23
TGATAGCACCTTATATGTACATATAATATATTATTA [XGTACX_site837]	8.855 ± 0.035
ACATATATGGAGCTTATACACACTTTTATATTTTAA [CACACA_site3854]	7.7 ± 0.57
TTTTAAATATGCCATACACACTACTCTATAATAAAT [CACACA_site6987]	7.87 ± 0.44
TTATCATATAATTATTGTACTAAAAAAAAAGCGAGT [XGTACX_site3086]	8.24 ± 0.52
TATATATATATGTGTACACATGTCGCATTTTTTTAT [CACACA_site4648]	9.34 ± 0.28
GATATTATAAAATAAAAATAAATCATTTCTATTCAT [CACACA_negctrl_site334]	7.17 ± 0.5
TTATGTGTATAGGTTTGTACATAAAATGATGTATAG [XGTACX_site1401]	7.85 ± 0.35
TAGTCATATATATATGTACACACATATATATATTTA [CACACA_site8413]	7.56 ± 0.085
TCATGGAATATTTAAAGTACAAAAAGTGTTCTTTAC [XGTACX_site715]	7.57 ± 0.59
ATATATATATATATATGTACATATATATATTATATT [XGTACX_site6303]	9.38 ± 0.71
ACATTTAAATAATATGTGCACAGCTATATTTTCTTT [GTGCAC_site9562]	9.92 ± 0.26
TTATGGTGCATGAAATCACACATTGATATATATGCT [CACACA_site5352]	10 ± 0.45
GTGTCTTTTATTAAATGTACATATTCATAGATAAAA [XGTACX_site8578]	8.14 ± 0.13
AATTGAGAAGTGTGTTGTACATAATGGCACATACCT [XGTACX_site1370]	8.39 ± 0.59

Sequence	gcPBM binding intensity (ln)
ACCTTAAAAATAACTGCACACAAAAATAAATACCTT [CACACA_site8902]	9.555 ± 0.007
ACGTAAACATGTAGAAGGCATTACACAATGGTATAC [TGCATGCA_negctrl_site512]	7.92 ± 0.58
TAGAATGAAAAAAAAGCATGCGGGCAAAAATTTTTA [TGCATGCA_site926]	8.05 ± 0.73
TTATTTTTTTGGAATTCACACACAAAAAAAAAAATA [CACACA_site8650]	7.81 ± 0.37
ATGTGTATATATATGTGTACATAATTTGTGTTATTC [XGTACX_site2509]	8.07 ± 0.4
TAATATGTTTATGGTAACATACAAAAATGTATATAT [GTGCAC_negctrl_site204]	7.46 ± 0.52
TATTTTTTATTTTAAATCCTCTGATATTTAATTTGT [TGCATGCA_negctrl_site84]	7.66 ± 0.61
TATCCCCTTGTCCATATTAATTGTGACATCATATAT [XGTACX_negctrl_site9]	8.11 ± 0.81
AAGGTATAATATATTTGTACATATACATTTTTGAAT [XGTACX_site6493]	7.59 ± 0.42
GATTTTAATGGGTGTACACATTTATTTATATAAAGT [CACACA_site5317]	8.14 ± 0.42
TGAAAAATGTAATGCTCACACATATATATATATATA [CACACA_site5213]	9.41 ± 0.24
TATTAATTTAAATGGGTGCAAAACCTATATAAATAT	10.6 ± 0.55
AAAATGTCCCGTAGAAAATAAATTTATTACGCAATA [CACACA_negctrl_site1564]	7.69 ± 0.54
ATTTATGTTAATAAGTGTACAATAAATTTTTTTTAT [XGTACX_site7658]	7.75 ± 0.46
AACATATATAAATACACACACATATATATATGAAAT [CACACA_site4312]	7.82 ± 0.38
ATATTTTATTTTAATACACACAAGTTATATAACCAC [CACACA_site6508]	8.19 ± 0.48
TACATATATATATATGTACACACATTAATAAAAAAA [CACACA_site9058]	8 ± 0.2
ATAACAAAAAAAAAGGTGCTACAAAATGAATAAAAA [GTGCAC_site9659]	9.12 ± 0.3
AATATAAATAATTATACACACTTAATATATATATAC [CACACA_site5533]	7.9 ± 0.33
TAGGTGCCTTTTTTCACACACATGTCAACTAAATAT [CACACA_site2656]	9.29 ± 0.13
ATATTTAGGAAAAATAGTACACATTTAAATAATAAT [XGTACX_site7989]	8.09 ± 0.53
CTTTAAATTAATAAAAGTACATTATTTATATATTTT [XGTACX_site4808]	7.49 ± 0.23
